Test results taken from the supplement of paper PMC3334620.
The full ranking holds about 33,000 sequences; the median of “E-score (-0.5 to 0.5)” is about -0.021, and the highest 2% start at about 0.32. The list shows a part of the results.

Target: T1, Zap1 (UniProt P47043)
T1 sequence: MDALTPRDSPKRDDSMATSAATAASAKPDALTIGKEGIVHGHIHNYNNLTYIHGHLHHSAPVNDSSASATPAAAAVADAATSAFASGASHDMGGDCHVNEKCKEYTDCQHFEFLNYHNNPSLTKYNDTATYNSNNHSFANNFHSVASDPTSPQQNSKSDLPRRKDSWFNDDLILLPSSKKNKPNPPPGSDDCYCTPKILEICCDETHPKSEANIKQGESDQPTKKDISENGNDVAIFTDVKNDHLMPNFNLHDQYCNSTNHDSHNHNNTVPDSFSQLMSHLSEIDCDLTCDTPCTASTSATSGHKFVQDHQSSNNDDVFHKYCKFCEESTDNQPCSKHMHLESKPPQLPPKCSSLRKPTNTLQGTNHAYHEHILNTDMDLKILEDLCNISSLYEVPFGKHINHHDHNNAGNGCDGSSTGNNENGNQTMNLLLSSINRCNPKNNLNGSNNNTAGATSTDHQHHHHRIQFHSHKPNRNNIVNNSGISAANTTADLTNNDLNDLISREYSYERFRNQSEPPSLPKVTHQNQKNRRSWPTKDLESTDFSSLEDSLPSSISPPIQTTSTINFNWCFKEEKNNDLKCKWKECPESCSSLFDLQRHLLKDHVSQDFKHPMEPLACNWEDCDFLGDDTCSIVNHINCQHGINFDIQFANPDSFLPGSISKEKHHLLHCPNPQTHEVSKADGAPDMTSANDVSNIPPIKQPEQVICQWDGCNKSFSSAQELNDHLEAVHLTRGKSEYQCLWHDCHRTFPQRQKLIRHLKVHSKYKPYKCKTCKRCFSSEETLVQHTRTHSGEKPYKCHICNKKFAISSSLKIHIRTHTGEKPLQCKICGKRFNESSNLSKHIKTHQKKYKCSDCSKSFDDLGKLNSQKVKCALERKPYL
Assay: PBM E-score (8-mer binding enrichment) (E-score (-0.5 to 0.5)); higher = stronger / more preferred TF binding; most listed sequences are background and not binding sites
Settings: protein concentration: 200 nM; construct: GST-full length
In short: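 Masliner-normalised scans of fluorescent anti-GST signal were the basis for scoring. That signal came from GST-tagged yeast transcription factors applied at about 100-200 nM to double-stranded universal all-10-mer Agilent arrays on fresh or once-stripped slides. Each ungapped eight-base word, pooled with its reverse complement, received an E-score from the Universal PBM Analysis Suite.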

Sequence	PBM E-score
GAGGCCCC	0.00365
AGGCCCAT	-0.0467
AAAGGAAC	0.226
TCTATAGA	-0.0406
GCGCCCAA	-0.0151
CCGAGAGC	-0.153
ATTAGCAA	0.198
ACCGCCGC	0.153
TATCGTAA	0.104
ACCGCGTC	0.0683
AAAAGCAG	-0.0944
GGTGATAC	-0.043
ATAAGGAC	-0.0167
CAACGGTA	-0.0672
ACACGTGC	-0.00761
CACAGCAG	0.101
ACGGGAGC	-0.278
CCAGATGA	-0.0669
TAGGTCCA	0.0558
TATCTTAA	0.126
ATTATCAC	0.157
AATACGTA	0.0801
GGGGGCGA	-0.284
CATGAACG	-0.0671
AGTCTCAC	-0.0356

Sequence	PBM E-score
CTGCGTAC	-0.0438
CTGGCACC	-0.119
CCCAAGCC	-0.242
CAGCCACA	0.0102
AATCGATT	0.128
ACCTGCGT	-0.00058
GGGTTGAA	0.166
ATCAGTCC	-0.463
CGCATACG	-0.12
CCTTAAGG	0.411
CGCTAGGA	-0.0207
AACCACAT	0.234
GAAGTAGC	-0.158
GATGGGGA	-0.184
GGCCTTTA	0.114
GTGGCCAA	0.112
GGGAATCA	-0.0643
CAAAGCCG	-0.0731
AAGGGACG	-0.0626
TAAAGGCA	0.0176
ACAAAAGT	0.214
CGAGTAGA	-0.179
ACTTGATG	0.0331
ACAAAATC	0.15
CAGCGCCG	-0.17

Sequence	PBM E-score
CCCCTTCG	-0.0804
GCACATAA	0.132
CCAGGTAC	0.17
AACCTGCC	-0.127
CGGAGAAA	0.0268
CAGCAGAC	-0.0981
CCGTGTCC	-0.0502
ACGTATCA	-0.0535
CCAGGTAA	0.041
AACTAATA	0.314
TAGAGTAA	0.0912
AAGGTTCG	-0.0644
AGATCAAG	0.00615
GTTGGCAA	0.0181
TATGTGAA	-0.0187
GCCTAACC	0.125
CAAAGTCC	-0.074
CGGTTCCC	-0.172
CTCCAGAC	-0.165
GGGACAAA	0.219
CAACCGCC	-0.0608
TAGGTTAA	0.319
CTTATGTC	0.00435
TCCGTTAA	-0.0545
AAGCGCTT	0.0687

Sequence	PBM E-score
ATCCGGTG	-0.00636
CATGGCCC	0.071
CCGAGACA	-0.133
CCGTATAC	0.0928
CTATAGCC	-0.288
CGGTGCAC	-0.235
ACTATTCA	0.181
CGGCACTC	-0.15
AGAGCTAC	-0.184
ATTCAGAA	0.181
CCGAAGGA	-0.06
CACGATCC	0.141
GCACAAGC	-0.0159
AGGGGCCC	0.0465
CTAATTAG	0.245
CTGTCCGC	-0.116
TGATAGCA	-0.0114
ATGTAAAT	0.0136
AAATGATA	0.16
GACTTTCA	0.101
GACAACCC	0.35
ATACACGG	0.0273
AGCGGATG	-0.127
ACAACCTA	0.232
ACATGGCC	0.0799

Sequence	PBM E-score
TTGACCAA	0.23
ATAAACTA	0.261
ACGAGTCG	-0.0633
CGAAGGAG	-0.186
CGTAACAA	0.201
GAGAGACC	0.145
TACATCTA	0.0905
ACTCGAAA	0.0377
ACGTCCGC	-0.0615
ACAACCGT	0.0867
GTCTCTGA	0.0136
AATGTCAC	0.0971
CGCTTTAA	-0.0207
ATTCTGTC	-0.145
ACATAGCT	-0.138
GTTGTCAA	0.0958
GCTATTAA	0.176
AGAAAACC	0.192
GGAATACC	0.0178
CCCGGTCA	-0.0409
GCACATGA	-0.177
TCACTTAA	0.164
ACCATTAG	0.18
GTAATACA	0.0684
ATATTGAC	-0.0127

Sequence	PBM E-score
AAGCCCCT	-0.151
CGACGTTA	0.114
ACTACGGC	-0.131
CAAGCGGC	-0.00088
GACGCGGC	-0.0345
CTCTTTAC	-0.0955
ACTTGACA	-0.142
TCAAGGAA	0.0133
TCCCGAAA	0.0471
AATCGCCA	-0.0758
AGTGGTAT	0.151
ACAAGTAT	-0.0701
AAGAGTGC	-0.122
AATTTGGT	0.26
ACCACCCA	0.252
ATGCTCCG	-0.237
AGACTTAC	-0.165
AATGGATG	0.0867
ACAGGTAA	0.209
ACACAACA	0.0276
AATGTTTC	-0.00763
GTTCTGGA	0.0591
CTTCCCAA	-0.213
GTGGGGGA	-0.317
GATATAAC	0.207

Sequence	PBM E-score
ATCACCCG	0.166
CGATTGGC	-0.06
CTCGTCCC	-0.232
CTCCAGCC	-0.333
ACCTTTCG	0.292
ATTATTTG	0.0556
ACCCACGA	0.266
GAGTCCGA	-0.0125
GCCTAAGA	-0.119
GTGACTAA	0.15
GGCGAGTA	-0.179
GAGGCTGA	-0.0123
ATATCTCA	0.0986
TACGAGTA	0.0779
CCGAGGTC	0.281
AAGTAAGC	0.0576
TCTCCTCA	-0.174
GGAGTCTA	-0.125
ATCCTTAA	0.0254
CGCGGACA	0.0596
CGTGTTTA	0.0147
GCCAAGGA	-0.339
